Read-outs that look alike come from different tables or passages of the source. At least one peptide structure holds a part that was inferred or is arguable (an end, a ring closure or a residue). Starred links: 1 amine or outer side, 2 acyl side, 3 side chain; linkers in the order of their positions; H or OH if unused. Positions of bridges follow the written chain, without caps; N, C: chain ends. Non-standard residues stand in square brackets, D forms with d. Residues, ends and D or L forms follow the SMILES beside them. Groups on a side chain read outwards from the residue. Chains are numbered I, II in the order given. *: point of attachment. C18 diacid = O=C(O)CCCCCCCCCCCCCCCCC(=O)*; C17 diacid = O=C(O)CCCCCCCCCCCCCCCC(=O)*; γGlu = O=C(O)[C@H](CCC(=O)[*:2])N[*:1]; NMeY = CN[C@@H](Cc1ccc(O)cc1)C(=O)O; AEEA = NCCOCCOCC(=O)O; Aib = CC(C)(N)C(=O)O
Tests used:
human GLP-1R = target: T1, human GLP-1R (Homo sapiens, UniProt P43220); assay: Human GLP1R agonist activity, intracellular cAMP accumulation; type: cell-based
T1 construct: HEK-293T cells overexpressing full-length human GLP-1R; FLAG (N); host or cells: HEK-293T
T1 sequence (P43220 24-463): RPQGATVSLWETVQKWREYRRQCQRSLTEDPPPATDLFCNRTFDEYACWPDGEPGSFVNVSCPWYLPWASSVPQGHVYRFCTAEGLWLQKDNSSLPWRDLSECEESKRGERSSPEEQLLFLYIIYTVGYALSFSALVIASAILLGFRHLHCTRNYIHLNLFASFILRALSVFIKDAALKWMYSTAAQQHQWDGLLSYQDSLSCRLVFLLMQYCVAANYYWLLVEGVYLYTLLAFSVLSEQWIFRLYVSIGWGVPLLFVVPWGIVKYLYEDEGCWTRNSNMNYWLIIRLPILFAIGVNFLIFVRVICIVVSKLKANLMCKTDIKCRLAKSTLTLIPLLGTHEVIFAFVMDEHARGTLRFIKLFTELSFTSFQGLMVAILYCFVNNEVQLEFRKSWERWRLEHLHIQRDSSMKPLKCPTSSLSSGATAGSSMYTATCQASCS
Method in brief: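 Frozen assay-ready cells washed and resuspended at 4×10^5 cells/mL in Krebs Ringer buffer, then incubated with compound 1 hr at room temperature in the dark. cAMP read by HTRF (anti-cAMP antibody, d2-cAMP tracer). Normalised to 1 nm GLP-1 (100%) and DMSO (0%).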

C57BL/6J mice = assay: Oral glucose tolerance test (OGTT); type: in vivo; conditions: 3 nmol/kg s.c., 24 hours before glucose loading
Method in brief: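 Peptide or vehicle given s.c. at 0.1, 0.3, 3 or 10 nmol/kg (peptide-dependent), 24 h before oral 50% dextrose at 5 ml/kg unless stated otherwise. Blood glucose read at 0, 15, 30 and 60 min. % inhibition = (1−(AUC cpd−AUC naïve)/(AUC veh−AUC naïve))×100.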

[1] = HEK-293T cells overexpressing human GLP-1R, 1 hr, read-out: Human GLP1R cAMP EC50, HEK293T

CC[C@H](C)[C@H](NC(=O)[C@H](Cc1ccccc1)NC(=O)[C@@H](NC(=O)CNC(=O)[C@H](CCC(=O)O)NC(=O)C(C)(C)NC(=O)[C@H](Cc1ccc(O)cc1)NC)[C@@H](C)O)C(=O)N[C@@H](CO)C(=O)N[C@@H](CC(=O)O)C(=O)N[C@@H](Cc1ccc(O)cc1)C(=O)N[C@@H](CO)C(=O)N[C@H](C(=O)NC(C)(C)C(=O)N[C@@H](CC(C)C)C(=O)N[C@@H](CC(=O)O)C(=O)N[C@@H](CCCNC(=N)N)C(=O)NC(C)(C)C(=O)N[C@@H](C)C(=O)N[C@@H](CCC(N)=O)C(=O)NC(C)(C)C(=O)N[C@@H](CCCCNC(=O)COCCOCCNC(=O)COCCOCCNC(=O)CC[C@H](NC(=O)CC[C@H](NC(=O)CCCCCCCCCCCCCCCCC(=O)O)C(=O)O)C(=O)O)C(=O)N[C@@H](Cc1ccccc1)C(=O)N[C@H](C(=O)N[C@@H](CC(N)=O)C(=O)N[C@@H](Cc1c[nH]c2ccccc12)C(=O)N[C@@H](CC(C)C)C(=O)N[C@@H](CC(C)C)C(=O)N[C@@H](C)C(=O)N[C@@H](CCC(N)=O)C(=O)N[C@@H](CCCNC(=N)N)C(=O)N1CCC[C@H]1C(=O)N[C@@H](CO)C(=O)N[C@@H](CO)C(=O)NCC(=O)N[C@@H](C)C(=O)N1CCC[C@H]1C(=O)N1CCC[C@H]1C(=O)N1CCC[C@H]1C(=O)N[C@@H](CO)C(N)=O)C(C)C)[C@@H](C)CC [Compound 89] (H-[NMeY][Aib]EGTFISDYSI[Aib]LDR[Aib]AQ[Aib]K([AEEA-AEEA-γGlu-γGlu-C18 diacid])FVNWLLAQRPSSGAPPPS-NH2)
EC50 (human GLP-1R; read-out: Human GLP1R cAMP EC50, HEK293T, HEK-293T cells overexpressing human GLP-1R, 1 hr): 42.7 nM
Oral Glucose Tolerance Test Percent decrease in blood glucose AUC (%) over 60 mins (C57BL/6J mice): 32% (3 nmol/kg)

CC[C@H](C)[C@H](NC(=O)[C@H](CO)NC(=O)[C@H](Cc1ccc(O)cc1)NC(=O)[C@H](CC(=O)O)NC(=O)[C@H](CO)NC(=O)[C@@H](NC(=O)[C@H](Cc1ccccc1)NC(=O)[C@@H](NC(=O)CNC(=O)[C@H](CCC(=O)O)NC(=O)C(C)(C)NC(=O)[C@H](Cc1ccc(O)cc1)NC)[C@@H](C)O)[C@@H](C)CC)C(=O)N[C@@H](C)C(=O)N[C@@H](CC(C)C)C(=O)N[C@@H](CC(=O)O)C(=O)N[C@@H](CCCNC(=N)N)C(=O)NC(C)(C)C(=O)N[C@@H](CCCCNC(=O)CNC(=O)CNC(=O)[C@@H]1CCCN1C(=O)[C@H](C)NC(=O)[C@@H]1CCCN1C(=O)[C@H](C)NC(=O)[C@@H]1CCCN1C(=O)CC[C@H](NC(=O)CCCCCCCCCCCCCCCCC(=O)O)C(=O)O)C(=O)N[C@@H](CCC(N)=O)C(=O)NC(C)(C)C(=O)N[C@@H](CC(=O)O)C(=O)N[C@@H](Cc1ccccc1)C(=O)N[C@H](C(=O)N[C@@H](CC(N)=O)C(=O)N[C@@H](Cc1c[nH]c2ccccc12)C(=O)N[C@@H](CC(C)C)C(=O)N[C@@H](CC(C)C)C(=O)N[C@@H](C)C(=O)N[C@@H](CCC(N)=O)C(=O)N[C@@H](CO)C(=O)N1CCC[C@H]1C(=O)NCC(=O)O)C(C)C [Compound 136] (I: H-[NMeY][Aib]EGTFISDYSIALDR[Aib]KQ[Aib]DFVNWLLAQSPG-OH / II: {C18 diacid-γGlu}-PAPAPGG; amide I:18-II:C)
EC50 (human GLP-1R; [1]): 63.1 nM
Oral Glucose Tolerance Test Percent decrease in blood glucose AUC (%) over 60 mins (C57BL/6J mice): 19% (3 nmol/kg)

CC[C@H](C)[C@H](NC(=O)[C@H](CO)NC(=O)[C@H](Cc1ccc(O)cc1)NC(=O)[C@H](CC(=O)O)NC(=O)[C@H](CO)NC(=O)[C@@H](NC(=O)[C@H](Cc1ccccc1)NC(=O)[C@@H](NC(=O)CNC(=O)[C@H](CCC(=O)O)NC(=O)C(C)(C)NC(=O)[C@H](Cc1ccc(O)cc1)NC)[C@@H](C)O)[C@@H](C)CC)C(=O)N[C@@H](C)C(=O)N[C@@H](CC(C)C)C(=O)N[C@@H](CC(=O)O)C(=O)N[C@@H](CCCNC(=N)N)C(=O)NC(C)(C)C(=O)N[C@@H](C)C(=O)N[C@@H](CCC(N)=O)C(=O)NC(C)(C)C(=O)N[C@@H](CC(=O)O)C(=O)N[C@@H](Cc1ccccc1)C(=O)N[C@H](C(=O)N[C@@H](CC(N)=O)C(=O)N[C@@H](Cc1c[nH]c2ccccc12)C(=O)N[C@@H](CC(C)C)C(=O)N[C@@H](CC(C)C)C(=O)N[C@@H](C)C(=O)N[C@@H](CCCCNC(=O)COCCOCCNC(=O)COCCOCCNC(=O)CC[C@H](NC(=O)CC[C@H](NC(=O)CCCCCCCCCCCCCCCCC(=O)O)C(=O)O)C(=O)O)C(=O)N[C@@H](CCCNC(=N)N)C(=O)NCC(=O)O)C(C)C [Compound 56] (H-[NMeY][Aib]EGTFISDYSIALDR[Aib]AQ[Aib]DFVNWLLAK([AEEA-AEEA-γGlu-γGlu-C18 diacid])RG-OH)
EC50 (human GLP-1R; [1]): > 1000 nM
Oral Glucose Tolerance Test Percent decrease in blood glucose AUC (%) over 60 mins (C57BL/6J mice): 47% (3 nmol/kg)

CC[C@H](C)[C@H](NC(=O)[C@H](CO)NC(=O)[C@H](Cc1ccc(O)cc1)NC(=O)[C@H](CC(=O)O)NC(=O)[C@H](CO)NC(=O)[C@@H](NC(=O)[C@H](Cc1ccccc1)NC(=O)[C@@H](NC(=O)CNC(=O)[C@H](CCC(=O)O)NC(=O)C(C)(C)NC(=O)[C@H](Cc1ccc(O)cc1)NC)[C@@H](C)O)[C@@H](C)CC)C(=O)N[C@@H](C)C(=O)N[C@@H](CC(C)C)C(=O)N[C@@H](CC(=O)O)C(=O)N[C@@H](CCCNC(=N)N)C(=O)NC(C)(C)C(=O)N[C@@H](C)C(=O)N[C@@H](CCC(N)=O)C(=O)NC(C)(C)C(=O)N[C@@H](CCCCNC(=O)COCCOCCNC(=O)COCCOCCNC(=O)CC[C@H](NC(=O)CC[C@H](NC(=O)CCCCCCCCCCCCCCCC(=O)O)C(=O)O)C(=O)O)C(=O)N[C@@H](Cc1ccccc1)C(=O)N[C@H](C(=O)N[C@@H](CC(N)=O)C(=O)N[C@@H](Cc1c[nH]c2ccccc12)C(=O)N[C@@H](CC(C)C)C(=O)N[C@@H](CC(C)C)C(=O)N[C@@H](C)C(=O)N[C@@H](CCC(N)=O)C(=O)N[C@@H](CCCNC(=N)N)C(=O)NCC(=O)NCC(=O)NCC(=O)NCC(=O)N[C@@H](CO)C(N)=O)C(C)C [Compound 30] (H-[NMeY][Aib]EGTFISDYSIALDR[Aib]AQ[Aib]K([AEEA-AEEA-γGlu-γGlu-C17 diacid])FVNWLLAQRGGGGS-NH2)
EC50 (human GLP-1R; [1]): 105 nM
Oral Glucose Tolerance Test Percent decrease in blood glucose AUC (%) over 60 mins (C57BL/6J mice): 27% (3 nmol/kg)

CC[C@H](C)[C@H](NC(=O)[C@H](CO)NC(=O)[C@H](Cc1ccc(O)cc1)NC(=O)[C@H](CC(=O)O)NC(=O)[C@H](CO)NC(=O)[C@@H](NC(=O)[C@H](Cc1ccccc1)NC(=O)[C@@H](NC(=O)CNC(=O)[C@H](CCC(=O)O)NC(=O)C(C)(C)NC(=O)[C@H](Cc1ccc(O)cc1)NC)[C@@H](C)O)[C@@H](C)CC)C(=O)N[C@@H](C)C(=O)N[C@@H](CC(C)C)C(=O)N[C@@H](CC(=O)O)C(=O)N[C@@H](CCCNC(=N)N)C(=O)NC(C)(C)C(=O)N[C@@H](C)C(=O)N[C@@H](CCC(N)=O)C(=O)NC(C)(C)C(=O)N[C@@H](CCCCNC(=O)CNC(=O)CNC(=O)[C@@H]1CCCN1C(=O)[C@H](C)NC(=O)[C@@H]1CCCN1C(=O)[C@H](C)NC(=O)[C@@H]1CCCN1C(=O)CC[C@H](NC(=O)CCCCCCCCCCCCCCCCC(=O)O)C(=O)O)C(=O)N[C@@H](Cc1ccccc1)C(=O)N[C@H](C(=O)N[C@@H](CC(N)=O)C(=O)N[C@@H](Cc1c[nH]c2ccccc12)C(=O)N[C@@H](CC(C)C)C(=O)N[C@@H](CC(C)C)C(=O)N[C@@H](C)C(=O)N[C@@H](CCC(N)=O)C(=O)N[C@@H](CO)C(=O)N1CCC[C@H]1C(=O)NCC(=O)O)C(C)C [Compound 117] (I: H-[NMeY][Aib]EGTFISDYSIALDR[Aib]AQ[Aib]KFVNWLLAQSPG-OH / II: {C18 diacid-γGlu}-PAPAPGG; amide I:21-II:C)
EC50 (human GLP-1R; [1]): 44.7 nM
Oral Glucose Tolerance Test Percent decrease in blood glucose AUC (%) over 60 mins (C57BL/6J mice): 30% (3 nmol/kg)
